Test results: article PMC4336329 (PLoS ONE, 2015)
About 14,000 (4.5%) of roughly 310,000 compounds showed an effect of 50% or more. Effects have a minus sign here. Some of the results follow.

molecular target: human ether-à-go-go-related gene (hERG) potassium channel (human, UniProt Q12809); test: primary screen, population patch clamp on CHO cells stably expressing hERG
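Also: peak tail current of the secondary pulse compared with the same well before compound.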

Sequence of human ether-à-go-go-related gene (hERG) potassium channel (Q12809 whole entry, looked up): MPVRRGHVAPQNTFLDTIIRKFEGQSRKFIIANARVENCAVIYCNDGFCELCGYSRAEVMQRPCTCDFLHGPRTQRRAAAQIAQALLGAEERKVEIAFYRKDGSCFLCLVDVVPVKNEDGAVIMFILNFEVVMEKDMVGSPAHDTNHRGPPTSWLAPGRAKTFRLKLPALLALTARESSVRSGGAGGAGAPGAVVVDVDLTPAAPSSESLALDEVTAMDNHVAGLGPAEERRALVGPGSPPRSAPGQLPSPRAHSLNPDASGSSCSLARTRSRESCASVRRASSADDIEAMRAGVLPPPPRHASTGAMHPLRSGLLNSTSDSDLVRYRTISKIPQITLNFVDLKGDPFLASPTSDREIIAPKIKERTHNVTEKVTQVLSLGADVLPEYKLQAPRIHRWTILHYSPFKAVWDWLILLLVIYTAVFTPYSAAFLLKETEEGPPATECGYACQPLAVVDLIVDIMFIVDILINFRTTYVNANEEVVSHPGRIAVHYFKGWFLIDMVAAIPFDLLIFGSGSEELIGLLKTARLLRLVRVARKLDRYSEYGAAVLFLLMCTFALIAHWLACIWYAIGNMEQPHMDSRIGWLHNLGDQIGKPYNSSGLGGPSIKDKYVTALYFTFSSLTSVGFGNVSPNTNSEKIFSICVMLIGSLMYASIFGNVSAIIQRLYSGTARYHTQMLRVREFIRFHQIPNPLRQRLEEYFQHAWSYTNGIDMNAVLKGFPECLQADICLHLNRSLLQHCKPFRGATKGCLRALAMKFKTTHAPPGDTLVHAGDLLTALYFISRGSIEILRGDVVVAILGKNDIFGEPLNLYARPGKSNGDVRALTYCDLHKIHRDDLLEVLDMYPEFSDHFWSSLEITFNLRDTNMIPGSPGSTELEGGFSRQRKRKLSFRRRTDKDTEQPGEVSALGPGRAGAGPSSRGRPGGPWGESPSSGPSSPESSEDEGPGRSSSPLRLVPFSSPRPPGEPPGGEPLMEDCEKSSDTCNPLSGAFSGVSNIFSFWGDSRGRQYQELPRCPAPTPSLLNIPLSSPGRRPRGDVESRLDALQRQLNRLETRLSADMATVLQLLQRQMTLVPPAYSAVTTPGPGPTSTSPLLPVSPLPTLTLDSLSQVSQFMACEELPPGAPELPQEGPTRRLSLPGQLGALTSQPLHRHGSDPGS

SMILES	hERG current change (%, negative = inhibition) at 10uM [%]
Cc1cc(C)c(NC(=O)COC(=O)C2CCN(c3ccc(C(F)(F)F)cn3)CC2)c(Cl)c1	-6.28
Cc1ccccc1N1C(=O)c2cccc3c(N(C)CCO)ccc(c23)C1=O	-37.6
O=C(CNS(=O)(=O)c1ccc(F)cc1)N1CCOCC1	4.41
CCCN1C(=O)/C(=C/c2ccc(OCc3ccc(C(=O)O)cc3)c(OC)c2)NC1=S	18
COc1ccc(O)c(-c2cc(-c3cccs3)[nH]n2)c1	0.169
CCN(CC)CCCN(Cc1cc2cc3c(cc2[nH]c1=O)OCO3)C(=S)Nc1ccc(OC)cc1	-46.8
O=C(CSc1nnc(NC(=O)C2CCC2)s1)NC1CC1	13.2
Cc1c(C(=O)NCCN2CCOCC2)sc2nc(-c3ccc(F)cc3)cn12	-23.6
Cc1ccc(NC(=O)CCNC(=O)c2ccccc2Cl)nc1	6.84
COc1ccc(C(=O)Nc2ccnn2C2CCN(Cc3ccn[nH]3)CC2)cc1	3.21
CCOC(=O)C1CCN(C(=O)CN2C(=O)C(CC)Oc3ccccc32)CC1 (centres unmarked)	-6.71
C(=C\c1ccccn1)/c1ccccn1	24.4
CCSc1ccc(-c2nn(-c3ccccc3)cc2/C=C(/C#N)C(=O)NC)cc1	12.5
CCN(CC)c1ccc(N2C(=O)c3ccccc3C2=O)cc1	1.72
COC(=O)CN1C(=O)[C@H]2[C@@H](/C=C/c3ccccc3)N3C(=O)CN(Cc4ccccc4)C(=O)[C@@]3(C)[C@H]2C1=O	-18.9
CCn1c(N)c(C(=O)NCCCOC)sc1=S	27
Cc1ccc(Cl)cc1N1CCN(Cc2cc3c(cc2O)CCC3)CC1	4.92
O=C1CC(c2ccsc2)c2ccc3ccccc3c2N1 (centres unmarked)	9.86
COc1ccc(OC)c(NC(=O)CN(C)S(=O)(=O)c2ccc3nc(C)sc3c2)c1	-16
Cc1ccc(C(=O)NCC(=O)Nc2ccc3c(c2)OCCO3)cc1	16.2
COc1ccc(CNC(=O)[C@H](Cc2ccccc2)NC(=O)C2CCNCC2)cc1	15.4
CCOC(=O)C1CCN(C(=O)COC(=O)c2ccc3c(c2)C(=O)N(c2ccc(OCC)cc2)C3=O)CC1	6.9

SMILES	hERG current change (%, negative = inhibition) at 10uM [%]
O=C(c1ccccc1Oc1ccc([N+](=O)[O-])cc1)N1CCOCC1	-52
CSCC(=O)NC1CCCc2c1cnn2-c1cc(F)cc(F)c1 (centres unmarked)	-12.6
COc1ccc(S(=O)(=O)Nc2cc3c4c(c2)CCC(=O)N4CCC3)cc1	-15
CCN(CC)S(=O)(=O)c1cccc(C(=O)OCC(=O)Nc2ccccc2OC(F)F)c1	-7.37
Cc1ccc(/C=C2/C(=O)NC(=O)N(CCc3ccc(F)cc3)C2=O)s1	17.9
Brc1ccc(OCCCN2CCOCC2)cc1.O=C(O)C(=O)O	-28.1
Cc1ccc(CNC(=O)CC(C)S(=O)(=O)c2ccc3c(c2)NC(=O)C(C)S3)cc1 (centres unmarked)	-39.9
CC(C)C(C(=O)NCC1CCCO1)N(C(=O)CNS(=O)(=O)c1ccccc1)c1ccc(F)cc1 (centres unmarked)	13.8
CC(Sc1ccc(S(=O)(=O)N2CCN(C)CC2)cn1)C(=O)NC1CCCCC1 (centres unmarked)	-2.98
Cc1cccc(NC(=O)c2onc3c2CCCC3)c1C	7.58
Cc1noc(C)c1CSCC(=O)Nc1ccc(Br)cc1Cl	-27.3
O=C(O)c1ccc(C(=O)Nc2cccc3ccccc23)c(C(=O)O)c1	16.6
CC(C)(C)c1ccc(-n2ncc3c2CCCC3NC(=O)CN2CCCCC2=O)cc1 (centres unmarked)	21.2
CCOc1ccc(Nc2nc(NCC3CCCO3)c3ccccc3n2)cc1.Cl (centres unmarked)	-72.3
O=C(Oc1ccccc1)N1CCCC1	20.8
CCOP(=S)(OCC)SCC(=O)NC(C(=O)O)C(C)C (centres unmarked)	7.13
O=C(Nc1ccc2c(c1)OCCO2)c1cncc(Br)c1	7.82
O=C(Nc1cccnc1)c1sc(Nc2ccccc2)nc1-c1ccccc1	-0.592
C=C(c1ccc(O)cc1)c1ccc(O)cc1	-15.5
Cc1ccc2c(Cl)cc(Cl)c(OCC(=O)NC(C)(C)C)c2n1	-7.42
CN1CCC(=NNC(=O)C(=O)Nc2cccc(Br)c2)CC1	8.18
Cc1ccc(NC(=O)c2ccc(=O)n(CC(=O)Nc3c(C)cc(C)cc3C)n2)cc1	-30.9
